Experimental data published in PubChem BioAssay AID2100 (National Center for Advancing Translational Sciences (NCATS), 2009).
Out of some 300,000 compounds screened, about 1,200 (0.4%) were called active. The inconclusive results got no clear call from the source; some entries with a clear call stand among them for comparison. The call rests on the fitted dose curve; in most records, active means well fitted inhibition curve with a large enough effect; inconclusive means small, poorly fitted or top-dose-only effect, or another doubt; inactive means no such curve, though single readings can be large or run the other way. A potency beside an inconclusive call is a rough fit, not a confirmed value.

molecular target: Lysosomal alpha-glucosidase (Homo sapiens) (UniProt P10253); experiment: qHTS Assay for Inhibitors and Activators of Human alpha-Glucosidase Cleavage of Glycogen; settings: recombinant GAA, glycogen substrate, Amplex Red glucose oxidase fluorescence; activity change, negative = inhibition: at 76.4 µM (top of the series) unless noted;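 on activity change, negative = inhibition: 0% = full enzyme reaction and -100% = no-enzyme basal signal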
Procedure, shortened: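 Natural-substrate format: glycogen cleavage by 4 nM human enzyme, glucose read by Amplex Red coupling (Ex 573, Em 610 nm). Normalized to enzyme and no-enzyme controls.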
Potency means the concentration at half of the fitted maximal effect.

Question: Which Potency does the source give for `O=[N+]([O-])c1ccc(NNC(=S)Nc2ccccc2)cc1` here?
Answer: inconclusive: 31.4 µM [inhibitor, single point]

Question: With `Nc1nc2c(s1)CCc1c-2cnn1-c1ccccc1` as the molecule, how does the Potency read?
Answer: inconclusive: 39.5 µM [inhibitor, single point]

Question: With `Cc1scc(C(=O)NNC(=S)NC(C)c2ccccc2)c1C` (configuration not stated) as the molecule, how does the Potency read?
Answer: inconclusive: 39.8 µM [inhibitor, single point]

Question: With `O=C(c1ccc(=O)n(Cc2ccc(Cl)c(Cl)c2)c1)N1CCOCC1` as the molecule, how does the Potency read?
Answer: inconclusive: 3.98 µM [inhibitor, full curve, poor fit]

Question: Which “activity change, negative = inhibition” value does the source give for `COc1ccc(C(=O)/C=C/C(=O)N(CC(=O)NCCC(C)C)Cc2cccs2)c(O)c1` here?
Answer: inactive: -7.97%

Question: With `FC(F)(F)c1cccc(NC(=S)Nc2cccc(NC(=S)Nc3cccc(C(F)(F)F)c3)n2)c1` as the molecule, how does the Potency read?
Answer: inconclusive: 22.4 µM [inhibitor, partial curve]

Question: For `COC(=O)c1ccc(-c2nc(O)c3cnccn23)cc1`, which Potency is on record?
Answer: inconclusive: 24.9 µM [inhibitor, single point]

Question: With `C/C(=N\Nc1ccc(Cl)c(C(=O)O)c1)c1ccc(N2CCOCC2)cc1` as the molecule, how does the Potency read?
Answer: inconclusive: 50.1 µM [inhibitor, single point]

Question: Which Potency does the source give for `CCOC(=O)C1=C(CS(=O)(=O)c2ccc(F)c(C)c2)NC(=O)NC1c1ccc(O)c(O)c1` (configuration not stated) here?
Answer: inconclusive: 7.94 µM [inhibitor, full curve]

Question: How did the “activity change, negative = inhibition” value turn out when `CCn1c(=O)cc(OCC(=O)N2CCN(c3ccc(C)cc3)C(C)C2)c2ccccc21` (configuration not stated) was run?
Answer: inactive: -23.4% [at 76.3 µM]

Question: With `COc1cc(C2C(C#N)=C(SC)NC3=C2C(=O)CCC3)ccc1O` (configuration not stated) as the molecule, how does the Potency read?
Answer: inconclusive: 31.6 µM [inhibitor, partial curve]

Question: For `Cc1ccc(S(=O)(=O)NNC(=S)NCC2CCCO2)cc1` (configuration not stated), which Potency is on record?
Answer: inconclusive: 50.1 µM [inhibitor, single point]

Question: `COc1ccc2c(c1)c(=O)c(S(=O)(=O)c1ccc(F)cc1)cn2Cc1ccccc1Cl` was tested. Which “activity change, negative = inhibition” value did it give?
Answer: inactive: 1.58% [at 76.3 µM]

Question: `Cc1cc2c(c(SCC(=O)N(C)c3ccccc3)n1)C(=O)OC2` was tested. Which Potency did it give?
Answer: inconclusive: 12.6 µM [inhibitor, single point]

Question: `COC(=O)C1=C(C)N(Cc2ccccc2)C(=NCc2ccco2)N[C@H]1c1ccc(Br)cc1` was tested. Which “activity change, negative = inhibition” value did it give?
Answer: inactive: -12.3% [at 76.3 µM]

Question: With `COc1ccc(NC2CCN(C3CC(=O)N(c4ccc(F)c(Cl)c4)C3=O)CC2)cc1` (configuration not stated) as the molecule, how does the Potency read?
Answer: inconclusive: 22.4 µM [inhibitor, partial curve]

Question: With `CCCCNC(=S)NNC(=O)c1c(C)nc2ccccn12` as the molecule, how does the Potency read?
Answer: inconclusive: 10 µM [inhibitor, partial curve]

Question: How did the Potency turn out when `Brc1ccc(N/N=C(/N=Nc2nn[nH]n2)c2ccccc2)cc1` was run?
Answer: inconclusive: 25.1 µM [inhibitor, partial curve]

Question: With `Cc1ccc(S(=O)(=O)Nc2ccc(O)c3ncccc23)cc1` as the molecule, how does the Potency read?
Answer: inconclusive: 3.55 µM [inhibitor, single point]

Question: How did the Potency turn out when `Cc1ccccc1Nc1c(-c2c(F)cccc2Cl)nc2ccc(Br)cn12` was run?
Answer: inconclusive: 3.55 µM [inhibitor, full curve]

Question: With `Cc1oc2c(CN3CCCC3)c(O)ccc2c(=O)c1-c1ccc(Br)cc1` as the molecule, how does the “activity change, negative = inhibition” value read?
Answer: inactive: -4.84%

Question: How did the activity change, negative = inhibition turn out when `C=CCn1c(SCc2cc(=O)n3ccsc3n2)nc2ccccc2c1=O` was run?
Answer: inconclusive: 33% [activator]

Question: `O=C(CN1CCN(c2ccc(O)cc2)CC1)NC(=O)NCc1ccco1` was tested. Which Potency did it give?
Answer: active: 3.16 µM

Question: With `CCCC(=O)NNc1c2ccccc2nc2ccccc12` as the molecule, how does the Potency read?
Answer: inconclusive: 28.2 µM [inhibitor, partial curve]

Question: For `O=C1C2CCCN2C(c2ccccc2F)N1c1ccc(F)cc1` (configuration not stated), which Potency is on record?
Answer: inconclusive: 20 µM [inhibitor, partial curve]

Question: With `N#C/C(C(=O)N1CCCCC1)=C1\Nc2ccccc2S1` as the molecule, how does the Potency read?
Answer: inconclusive: 50.1 µM [inhibitor, single point]

Question: For `O=C(NC1CC1)c1ccc(C2SCC(=O)N2Cc2ccccc2)cc1` (configuration not stated), which Potency is on record?
Answer: inconclusive: 5.62 µM [inhibitor, full curve]

Question: How did the Potency turn out when `CC(C)c1ccc(NC(=O)Cn2c(=O)n(CC3CCC(C(=O)NCCc4ccccc4)CC3)c(=O)c3ccccc32)cc1` (configuration not stated) was run?
Answer: inconclusive: 50.1 µM [inhibitor, single point]

Question: How did the Potency turn out when `CCn1c(SCC(=O)NNC(=S)Nc2ccc(C)cc2)nnc1-c1ccc(Cl)cc1` was run?
Answer: inconclusive: 50.1 µM [inhibitor, partial curve]

Question: `C=CCOc1ccc(/C=N\NC(N)=S)cc1` was tested. Which Potency did it give?
Answer: inconclusive: 35.5 µM [inhibitor, partial curve]

Question: With `NC(=S)N/N=C/c1ccc(-c2ccc(SC(F)F)cc2)o1` as the molecule, how does the Potency read?
Answer: inconclusive: 39.8 µM [inhibitor, single point]

Question: With `NNC(=O)c1cccc(S(=O)(=O)Nc2cccc(C(F)(F)F)c2)c1` as the molecule, how does the Potency read?
Answer: inconclusive: 44.7 µM [inhibitor, single point]

Question: `CCCc1nc(NCc2ccccn2)c2nnn(Cc3ccccc3F)c2n1` was tested. Which “activity change, negative = inhibition” value did it give?
Answer: inactive: -3.82%

Question: `CC(C)(C)c1ccc(C(=O)NNc2ncccc2-n2cccc2)cc1` was tested. Which Potency did it give?
Answer: inconclusive: 14 µM [inhibitor, partial curve]

Question: For `O=C(Cn1c[n+](CC(=O)c2ccc([N+](=O)[O-])cc2)cn1)c1ccc([N+](=O)[O-])cc1`, which Potency is on record?
Answer: inconclusive: 39.8 µM [inhibitor, single point]

Question: `Oc1cc2c(cc1O)C1c3ccc(O)c(O)c3OCC1(O)C2` (configuration not stated) was tested. Which Potency did it give?
Answer: inconclusive: 3.16 µM [inhibitor, full curve]

Question: For `COC(=O)CCN(c1ccccc1)C(CNS(=O)(=O)c1ccccc1)c1ccccc1` (configuration not stated), which Potency is on record?
Answer: inconclusive: 11.2 µM [inhibitor, single point]

Question: `COc1ccc(Nc2oc(/C=C/c3ccccc3OC)nc2C#N)cc1` was tested. Which Potency did it give?
Answer: inconclusive: 25.1 µM [inhibitor, partial curve]

Question: Which Potency does the source give for `Cc1ccc(S(=O)(=O)NNC(=O)c2csnn2)cc1` here?
Answer: inconclusive: 39.8 µM [inhibitor, single point]

Question: Which Potency does the source give for `Cc1cc(O)c(C(C)C)cc1NC(=O)Nc1cccc2ccccc12` here?
Answer: inconclusive: 20 µM [inhibitor, partial curve]

Question: With `CC1CCC/C(=N/Nc2nc3ccccc3s2)C1` (configuration not stated) as the molecule, how does the Potency read?
Answer: inconclusive: 39.8 µM [inhibitor, single point]

Question: With `COc1ccc(-n2nc(C(=O)Nc3ccc(C(C)=O)cc3)nc2-c2ccccc2)cc1` as the molecule, how does the “activity change, negative = inhibition” value read?
Answer: inactive: 7.29% [at 76.3 µM]

Question: How did the “activity change, negative = inhibition” value turn out when `CCC(C)NC(=O)CCSc1ccc(C)cc1` (configuration not stated) was run?
Answer: inactive: 3.92%

Question: Which Potency does the source give for `CSc1ccc(-c2nc3cccc(C)n3c2Nc2ccc3c(c2)OCO3)cc1` here?
Answer: inconclusive: 6.31 µM [inhibitor, full curve]

Question: For `COc1ccc(N2C(=O)C(CC(=O)Nc3ccccc3)N(CCC3=CCCCC3)C2=O)cc1` (configuration not stated), which “activity change, negative = inhibition” value is on record?
Answer: inactive: 6.35% [at 76.3 µM]

Question: `Cc1ccc(O)c(-c2cc3ccccc3[nH]2)c1` was tested. Which Potency did it give?
Answer: active: 31.6 µM

Question: `Cc1c(Br)c(=O)oc2c(Br)c(O)c(O)cc12` was tested. Which Potency did it give?
Answer: inconclusive: 28.2 µM [inhibitor, single point]

Question: Which Potency does the source give for `CC(/C=C/c1ccccc1)=N\Nc1nc(C)cc(C)n1` here?
Answer: inconclusive: 39.8 µM [inhibitor, single point]

Question: Which Potency does the source give for `Cc1ccc2c(c1)NC(=O)c1cccnc1N2` here?
Answer: inconclusive: 31.6 µM [inhibitor, single point]

Question: For `Cc1ccc(S(=O)(=O)NCc2cn3ccsc3n2)c(C)c1`, which activity change, negative = inhibition is on record?
Answer: inconclusive: 30.9% [activator]

Question: Which “activity change, negative = inhibition” value does the source give for `CN1CCN(Cc2nc3ccccc3c(=O)n2Cc2nc(-c3cccc([N+](=O)[O-])c3)cs2)CC1` here?
Answer: inactive: 15%

Question: How did the Potency turn out when `O=C(Cc1csc(N2CCOCC2)n1)N/N=C/c1ccc(O)c(O)c1O` was run?
Answer: inconclusive: 7.88 µM [inhibitor, full curve]

Question: For `Cc1ccc(NC(=O)CCCc2nc3ccccc3s2)c(O)c1`, which Potency is on record?
Answer: inconclusive: 22.2 µM [inhibitor, partial curve]

Question: With `Cc1cccc(Nc2c(-c3ccc(O)cc3)nc3ncccn23)c1` as the molecule, how does the Potency read?
Answer: inconclusive: 31.6 µM [inhibitor, partial curve]

Question: `S=c1[nH]c(-c2ccccc2)cn1/N=C/c1ccncc1` was tested. Which Potency did it give?
Answer: inconclusive: 12.6 µM [inhibitor, partial curve]

Question: With `COc1ccc(-n2nc3c(=O)[nH][nH]c3cc2=O)cc1` as the molecule, how does the Potency read?
Answer: inconclusive: 39.5 µM [inhibitor, single point]

Question: For `Oc1ccccc1-c1nc2cnccn2c1Nc1ccc(Cl)cc1`, which Potency is on record?
Answer: inconclusive: 7.94 µM [inhibitor, partial curve]

Question: Which Potency does the source give for `C/C(=N\Nc1nc(N2CCCCCC2)nc(N2CCCCCC2)n1)c1ccccc1` here?
Answer: inconclusive: 39.5 µM [inhibitor, single point]

Question: For `Cc1[nH]n(-c2ccccc2)c(=S)c1C=NCCCN=Cc1c(C)[nH]n(-c2ccccc2)c1=S`, which Potency is on record?
Answer: inconclusive: 14.1 µM [inhibitor, partial curve]

Question: `COc1ccc(-n2c3c(cc(C(=O)NNc4ccccc4)c2=O)C(=O)CC(C)(C)C3)cc1` was tested. Which Potency did it give?
Answer: inconclusive: 8.91 µM [inhibitor, full curve]

Question: With `O=C(O)CC/C(=N\Nc1ccc([N+](=O)[O-])cc1)c1ccccc1` as the molecule, how does the Potency read?
Answer: inconclusive: 28.2 µM [inhibitor, partial curve]

Question: With `Cc1c(C)c(C)c2[nH]c(=S)[nH]c2c1C` as the molecule, how does the “activity change, negative = inhibition” value read?
Answer: inactive: 4.09%

Question: For `COc1ccc(C(=O)N/N=C(\Cc2ncc[nH]2)c2ccccc2)cc1`, which Potency is on record?
Answer: inconclusive: 3.55 µM [inhibitor, full curve]

Question: How did the Potency turn out when `CSc1nc(O)c(/C=C2\C=Nc3ccccc32)[nH]1` was run?
Answer: inconclusive: 31.6 µM [inhibitor, partial curve]

Question: `Cc1cccc(C(=O)Nc2ccc3nc(SCC(=O)N4CCCC4)sc3c2)c1` was tested. Which “activity change, negative = inhibition” value did it give?
Answer: inactive: 3.88% [at 76.3 µM]

Question: How did the Potency turn out when `Cc1cc(CN2CCN(CCC#N)CC2)c(O)c(C2(C)CCCCC2)c1` was run?
Answer: inconclusive: 12.5 µM [inhibitor, partial curve]

Question: Which Potency does the source give for `C(=N\N1CCN(Cc2ccccc2)CC1)/c1ccccc1` here?
Answer: inconclusive: 12.5 µM [inhibitor, partial curve]
